T1: UNK ZnF1-3 (human, UniProt Q9C0B0 31-174)
T1 sequence: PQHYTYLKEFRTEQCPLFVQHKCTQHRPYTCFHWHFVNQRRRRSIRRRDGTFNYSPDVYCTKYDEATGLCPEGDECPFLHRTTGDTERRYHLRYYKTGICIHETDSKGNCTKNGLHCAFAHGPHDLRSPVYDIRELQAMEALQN

B1: 18226451_18236780_1457_3pUTR_ENSG00000124795_ENST00000397239|human|control|control (ssRNA)
RNA: GGGAGUUCUACAGUCCGACGAUCAAGUAGGAUAAUUUUCAUAGACCUUUUUGCAAAUCUGUUUCAUUGUGACUUCUUCCAAGUUAGCACUGGCCAGUAAUUUCUUUAUUGUUUCCUUUAACUCUUCAUCUGUAGGGGGUUUCUCAACAGAGGAUUGAGCAUCA
B2: chr18:35732044:35732045:+_ENSMUSG00000037236_ENSMUST00000166793|perfect_dup|motif|central (ssRNA)
RNA: GGGAGUUCUACAGUCCGACGAUCGAUUUGGGGCAAAUUCUCAGGAGUAAUCUUGUCCUCUGGAUAACGACUCAGUUCAUCGGAGUCUCUAGCAGACAGACCAAAGCUGGCCAAAAUGUUACUGGCCUGGUCUGCAUCUCCACGCAACAGAGGAUUGAGCAUCA
B3: 122839148_122839268_1072_CDS_ENSMUSG00000057895_ENSMUST00000051667|mouse|control|control (ssRNA)
RNA: GGGAGUUCUACAGUCCGACGAUCUUUCUGAUGGACAGUCAGAUUUGAACUCUGAGUGAAAGCCUUCCCACAUUUUCCACAGACAUAGGGUUUCUGUCCAGUGUGGAUCCUCUGAUGCACAACGAGGUUUGCACUUUGAAUGAACAACAGAGGAUUGAGCAUCA
B4: chr1:78444685:78444686:-_ENSG00000162613_ENST00000370768|hu_hu|motif|central (ssRNA)
RNA: GGGAGUUCUACAGUCCGACGAUCACCAGCUGAGCCAGAAGAGGGGGGAGGCACUGUUGAAUAGUCUGCCAUGGUUGCACGGUAAGAGCCGCUGCCGCCUGUUCAGAGACUUCCUCUCAGCUAACAGCUAAGAAAGAAAGAAAACAACAGAGGAUUGAGCAUCA
B5: chr3:108363203:108363204:-_ENSMUSG00000068732_ENSMUST00000090546|mus_mus|FALSE|FALSE (ssRNA)
RNA: GGGAGUUCUACAGUCCGACGAUCCCAGGUUUUGAGACGAGGUACUUUCUUGAAGUAGGCACAGGUGCAAACAAAGAGCAAACCAAACACCAGGAUCCCAUCCAAGGAGUACACGUUCGUCAUGGCGGUAGUGCCCGGCUGGGGCAACAGAGGAUUGAGCAUCA
B6: chr1:74301520:74301521:+_ENSMUSG00000006304_ENSMUST00000006467|perfect_dup|FALSE|FALSE (ssRNA)
RNA: GGGAGUUCUACAGUCCGACGAUCGAAGACUACUGUGACUCUGUCUUUCUUAGAUUCCACAUACAUGGUCUCAUCAUCCCUAUAAUGGAUAACUGCUCUGUUCUCUCCUUCUUUGCCCUCUUCUUGGAAUUGGAAGUAUUUCUCCAACAGAGGAUUGAGCAUCA
B7: chr16:89885150:89885151:-_ENSMUSG00000002489_ENSMUST00000163370|mus_mus|FALSE|FALSE (ssRNA)
RNA: GGGAGUUCUACAGUCCGACGAUCGCUCUGCUCAUCGCUGUGCGCAGAGCCAGCCUCCUCCAGGCUCUCACUGUUGGUGGUACUCAUCUCCAGUUCCCGCCUGAAGUUCUCGUACACCCCCUGGCGCGCAGCAUCCCCUGUUGACAACAGAGGAUUGAGCAUCA
B8: 103551391_103553149_608_3pUTR_ENSMUSG00000033004_ENSMUST00000161008|mouse|control|control (ssRNA)
RNA: GGGAGUUCUACAGUCCGACGAUCCAUCAGGAGUUACUGAUAUGUAUGGGGCAGGGACAGAUGUAGAACGCAGAUAUCUCAUUUCGUCCUGGAAUAGGUUGUCGUCUUGAUAGCCCACAAAAUUUUCAUGGUGGUGCCUAGCUACAACAGAGGAUUGAGCAUCA
B9: chr3:38349274:38349275:-_ENSMUSG00000044864_ENSMUST00000156038|mus_hu|FALSE|FALSE (ssRNA)
RNA: GGGAGUUCUACAGUCCGACGAUCGAAACAAAUAAGCAAGGCAGGGCAUCUCCAGCACCCAUCCUAUCAUCCUUAUCCUAACUCAAAGUCAUUUAUGUUCUAUUCCAAAACAUAAUUUAUAUAAAAACAUCCCGAGGAAUACUUCAACAGAGGAUUGAGCAUCA
B10: 81576995_81577115_532_CDS_ENSMUSG00000032705_ENSMUST00000038185|mouse|control|control (ssRNA)
RNA: GGGAGUUCUACAGUCCGACGAUCGAUUUGAUUCCACUCUGCCUCCUGAGAUACCGUCACCACCUCUGCCUGGAGUAUCCUCUCCUCCCAUGAGGCUCUGGGUGCUCUCAGGGCACCAAAGGGUAGCUGGUCAUCUUCUGGAGGCAACAGAGGAUUGAGCAUCA
B11: 100119613_100119733_569_CDS_ENSG00000154174_ENST00000284320|human|control|control (ssRNA)
RNA: GGGAGUUCUACAGUCCGACGAUCACUCCACAGGUAUAUGGCACCCGCGCCCAGCAGCAGGGGUGCCCCGACCGCCAGAGCCAGCUGCCAUCGCGGCAGCCCCCCCGUGCCCGGGCCCGCAGUCCCGCCGCCGCCCACCCCACUCAACAGAGGAUUGAGCAUCA
B12: chr5:21408736:21408737:-_ENSMUSG00000042453_ENSMUST00000161356|mus_hu|mus_mus_mus_hu_False|8_58 (ssRNA)
RNA: GGGAGUUCUACAGUCCGACGAUCGUUGACAGAGUUGUAGAUGGUGGCUUCAUGGAACUGGAAAGGGGAGCAGCCAAUGCUAUUGGAAGAGGAAGGAAGGCACUGGGUCUGUACGAGCUGCCAGGAAUCGGACCUUGCAUCCUUCAACAGAGGAUUGAGCAUCA
B13: chr17:62496016:62496017:-_ENSG00000108654_ENST00000581693|hu_hu|FALSE|FALSE (ssRNA)
RNA: GGGAGUUCUACAGUCCGACGAUCCAGAUAACACACAAUAUAAAGAGCAAUUAUGAAAAACAGACAUUUACAUAUACUUCUAAAGUCUUAUUGGGAAUAUCCUGUUGGCAUUGGAUAACCAAUCAUAGGUGCAGCUGCAGUAGCCAACAGAGGAUUGAGCAUCA
B14: chr17:4849111:4849112:-_ENSG00000108518_ENST00000225655|hu_mus|FALSE|FALSE (ssRNA)
RNA: GGGAGUUCUACAGUCCGACGAUCCCAGCCCCCAGCCCAUGUGGUUUUGGCAGCAAUAAGGGAAAUGGGGUAAUGGCCCAAAAAAUAAUGGUAUGUGUGUGUAUGGAAAGAAGGGGGUGCAAAAGCCAAAGGGAACGGUGGGGGCAACAGAGGAUUGAGCAUCA
B15: 90087342_90087766_2954_CDS_ENSMUSG00000032363_ENSMUST00000113059|mouse|control|control (ssRNA)
RNA: GGGAGUUCUACAGUCCGACGAUCCCGAAUGCCAGCUCCACAUGUCACAGAGCACUGAGACCAGUUCCCCACACCCCAAGUGGAAGGACAGAUUACAUGACGGUUGCACGGGGUUUCAGCCAGGGGACGGGGAAGAUGUUCGCACAACAGAGGAUUGAGCAUCA
B16: chr2:9570881:9570882:+_ENSG00000119203_ENST00000238112|hu_mus|hu_hu_hu_mus_False|18_48 (ssRNA)
RNA: GGGAGUUCUACAGUCCGACGAUCACUUGUCUUCUGAAGGAACCAGGGCAGGGCUCCACAGUGAUCCAAAUGGAAAUGACUGAUCAAUAGGAGAUCAAUCUCAGCUGGGUCGAUAAGAUCAAUAUAAGGAAGGGCAUCCAUUCCCAACAGAGGAUUGAGCAUCA
B17: chr3:170078963:170078964:+_ENSG00000136603_ENST00000458537|hu_mus|FALSE|FALSE (ssRNA)
RNA: GGGAGUUCUACAGUCCGACGAUCGGGAGCAAACAUUCCACAGCACUCCAGGCACUGGAUACAGGGAGCGUCGGGCUGAACAUAAAACUGAGGCGCAAAGAGACCCUGACAUUUGCCCAAGCAUUCAUGUUCCACUUCAAAGGCCAACAGAGGAUUGAGCAUCA
B18: chr11:29608385:29608386:+_ENSMUSG00000020458_ENSMUST00000102843|mus_mus|FALSE|FALSE (ssRNA)
RNA: GGGAGUUCUACAGUCCGACGAUCGUCAGUGUACUCCUUAGGAGAAUCAUCUUUAGCACUGACAAAUGUGGGAAACUCAUCUAUUAUCUCAAUGGGAGAUGAAUCGGAAAAUGUUUCACUUUCUUUCAUUUUGUCUUCCUUAGACAACAGAGGAUUGAGCAUCA
B19: 32038138_32038754_431_3pUTR_ENSMUSG00000039262_ENSMUST00000036691|mouse|control|control (ssRNA)
RNA: GGGAGUUCUACAGUCCGACGAUCUUGGGGUCGUUUCCUUUGUUUUCAGACUUCAGGCUUGGCAGGUUUGCAGGCGGUGGCAUACGCCGGGCUGUGGCAACUUUCCCGAGACUCUGUAAGCCAUGUCUAGGAAUAACUGAGGACCAACAGAGGAUUGAGCAUCA
B20: chr4:110441554:110441555:+_ENSG00000138802_ENST00000265175|hu_hu|FALSE|FALSE (ssRNA)
RNA: GGGAGUUCUACAGUCCGACGAUCUGAUAAUCCUUCUUGUAAAUUGUAGAAAUGAAUAGUGCUAUCAAAGGUCAUGAAUCCUAUUCUUGUUCGUGAAUCUCCAGGAAGCUUGUCUAGAUUUUCUAGGAGUGACUGGCACAAAAUCAACAGAGGAUUGAGCAUCA
B21: chr7:151048522:151048523:+_ENSG00000013374_ENST00000566856|hu_mus|hu_hu_hu_mus_True|18_38 (ssRNA)
RNA: GGGAGUUCUACAGUCCGACGAUCCUGUUUCUUAUUUAUUACGAUCUUGAUGUAAUUUUCUUGAAAUCCGAAAGUUUCAGCUAUUUGACACCUCAGGUCUCUGCCAGUGACAUGCAAUCGGGUCUCCAACAAGCUUUUCUUAUCCAACAGAGGAUUGAGCAUCA
B22: chr12:72996793:72996794:+_ENSMUSG00000034574_ENSMUST00000085299|mus_mus|motif|central (ssRNA)
RNA: GGGAGUUCUACAGUCCGACGAUCAGGGGGCAUGGGCAGCGCCGGCUCCAUUGUCUGAAGUGCAAAGUUGCUAUCAUUCCGGAGCCGAUAUGUGAUUUCUGGAUGGUCAUUGUUUCGGAAACAGCAAAAGAUAAAUGAAAUCCCCAACAGAGGAUUGAGCAUCA

This is one part of the list.

The experiment addresses T1, UNK ZnF1-3. The experiment in a line: nsRBNS (natural sequence RNA bind-n-seq); RBNS binding buffer (assumed for nsRBNS): 25 mM Tris pH 7.5, 150 mM KCl, 3 mM MgCl2, 0.01% Triton X-100, 500 ug/ml BSA, 20 U/ml SUPERase-In, 4 C; UNK is unkempt and MSI1 is Musashi-1; names of the RNAs are library labels; protein concentration not given here; high values mean tight binding.
The molecule B1 registered a binding signal of 0.566 enrichment R.
Regarding B2, the binding signal stood at 0.432 enrichment R.
B3 displayed a binding signal of 0.676 enrichment R.
B4 returned a binding signal of 1.41 enrichment R.
In turn, B5 displayed a binding signal of 1.15 enrichment R.
Regarding B6, the binding signal worked out at 0.656 enrichment R.
Take B7: the binding signal is 0.626 enrichment R.
With B8, the binding signal was 1.2 enrichment R.
B9: the binding signal was 1.58 enrichment R.
In turn, B10 came in with a binding signal of 0.316 enrichment R.
Molecule B11 displayed a binding signal of 0 enrichment R.
For the molecule B12, the binding signal was found to be 1.76 enrichment R.
The molecule B13 gave a binding signal of 1.48 enrichment R.
Turning to B14, the binding signal came out at 2.85 enrichment R.
Molecule B15 gave a binding signal of 1.92 enrichment R.
On to B16, for which the binding signal turned out to be 0.8 enrichment R.
In the case of B17 it was 1.78 enrichment R; in that of B18, 0.252 enrichment R.
Take B19: the binding signal turned out to be 0.999 enrichment R.
Take B20: the binding signal turned out to be 1.18 enrichment R.
For the molecule B21, the binding signal turned out to be 0.686 enrichment R.
In turn, B22 gave a binding signal of 0.921 enrichment R.
